Reference: PMC9911399, “Two distinct binding modes provide the RNA-binding protein RbFox with extraordinary sequence specificity”
Numbering of substitutions follows the chain as printed; changes in the protein carry UniProt numbers. Some of the results follow.

T1: RBFOX1 RRM RbFoxmut (Fox-RRM*) (Homo sapiens, UniProt Q9NWB1 109-208, R118D;E147R;N151S;E152T)
T1 sequence: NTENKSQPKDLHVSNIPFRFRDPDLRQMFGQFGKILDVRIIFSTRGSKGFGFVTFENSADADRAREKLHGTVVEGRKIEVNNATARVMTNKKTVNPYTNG

B1: CUCCGGC (DNA:RNA)
RNA: GGGAGACCGGAAUUCAGAUUGUCCCUCCGGCUUAAAUCCCGUCGUAGCCACCA
DNA 1: CAATCTGAATTCCGGTCTCCC
DNA 2: TGGTGGCTACGACGGGATT
B2: GAUACCA (DNA:RNA)
RNA: GGGAGACCGGAAUUCAGAUUGUCCGAUACCAUUAAAUCCCGUCGUAGCCACCA
DNA 1: CAATCTGAATTCCGGTCTCCC
DNA 2: TGGTGGCTACGACGGGATT
B3: GUCCUUC (DNA:RNA)
RNA: B1 RNA with C25G, G29U, G30U
DNA 1: CAATCTGAATTCCGGTCTCCC
DNA 2: TGGTGGCTACGACGGGATT
B4: CAUUUCA (DNA:RNA)
RNA: B2 RNA with G25C, A28U, C29U
DNA 1: CAATCTGAATTCCGGTCTCCC
DNA 2: TGGTGGCTACGACGGGATT
B5: AGACUCU (DNA:RNA)
RNA: B1 RNA with C25A, U26G, C27A, G29U, G30C, C31U
DNA 1: CAATCTGAATTCCGGTCTCCC
DNA 2: TGGTGGCTACGACGGGATT
B6: UGGGGUA (DNA:RNA)
RNA: B1 RNA with C25U, U26G, C27G, C28G, G30U, C31A
DNA 1: CAATCTGAATTCCGGTCTCCC
DNA 2: TGGTGGCTACGACGGGATT
B7: AAGAAAG (DNA:RNA)
RNA: B2 RNA with G25A, U27G, C29A, C30A, A31G
DNA 1: CAATCTGAATTCCGGTCTCCC
DNA 2: TGGTGGCTACGACGGGATT
B8: ACCUAGG (DNA:RNA)
RNA: B1 RNA with C25A, U26C, C28U, G29A, C31G
DNA 1: CAATCTGAATTCCGGTCTCCC
DNA 2: TGGTGGCTACGACGGGATT
B9: AAAGGAG (DNA:RNA)
RNA: B1 RNA with C25A, U26A, C27A, C28G, G30A, C31G
DNA 1: CAATCTGAATTCCGGTCTCCC
DNA 2: TGGTGGCTACGACGGGATT

What follows are binders tested against T1, RBFOX1 RRM RbFoxmut (Fox-RRM*) (assay: EMSA; HiTS-Eq, 1 nM pool, 10 min; buffer printed only for the single-RNA assays: 10 mM Tris pH 7.5, 150 mM NaCl, 3.4 mM EDTA, 0.001% NP-40, 30 C). Settings: tags: His6 N-terminal (pET28a); label: 5' 32P.
Method in brief: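 Purified wild-type or mutant RbFox RRM at increasing concentrations was equilibrated with 1 nM of 5′-radiolabelled RNA carrying 7 randomized nucleotides for 10 min in 50 µL. Unbound RNA was separated by 8% native PAGE and sequenced. Relative association constants came from read-count changes of each RNA species compared with the control reaction, normalised to the cognate motif.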

Q: B1 was tested. Which binding signal did it give?
A: The binding signal was 0.0953 KA relative to UGCAUGU.

Q: Which binding signal does the source give for B2 here?
A: The binding signal was 0.0754 KA relative to UGCAUGU.

Q: Which binding signal does the source give for B3 here?
A: Its binding signal is 0.0592 KA relative to UGCAUGU.

Q: With B4 as the binder, how does the binding signal read?
A: Its binding signal is 0.169 KA relative to UGCAUGU.

Q: Which binding signal does the source give for B5 here?
A: Its binding signal is 0.0373 KA relative to UGCAUGU.

Q: B6 was tested. Which binding signal did it give?
A: The binding signal was 0.214 KA relative to UGCAUGU.

Q: How did the binding signal turn out when B7 was run?
A: Its binding signal is 0.106 KA relative to UGCAUGU.

Q: B8 was tested. Which binding signal did it give?
A: Its binding signal is 0.108 KA relative to UGCAUGU.

Q: B9 was tested. Which binding signal did it give?
A: Its binding signal is 0.0985 KA relative to UGCAUGU.
